# Source: the BET-seq Pho4 binding data (Le et al. 2018)
# This is one part of the list. These are noisy estimates, calculated here from bound and input reads.
# Molecular target: T1, Pho4 (S. cerevisiae) (UniProt P07270)
# T1 sequence: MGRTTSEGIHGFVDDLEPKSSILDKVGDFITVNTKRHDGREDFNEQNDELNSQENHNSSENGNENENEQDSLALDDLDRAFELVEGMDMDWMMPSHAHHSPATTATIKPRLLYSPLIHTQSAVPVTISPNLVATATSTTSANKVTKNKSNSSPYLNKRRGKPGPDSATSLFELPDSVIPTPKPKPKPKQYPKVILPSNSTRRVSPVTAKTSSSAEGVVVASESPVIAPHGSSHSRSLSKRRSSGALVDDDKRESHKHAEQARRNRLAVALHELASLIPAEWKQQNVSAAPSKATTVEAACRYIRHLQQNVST
# Test: relative binding free energy (BET-seq); higher = weaker binding
# Settings: reference: library average
row,Sequence,relative binding free energy
1,TTTATCACGTGGTGTA,0.1 kcal/mol
2,ATCAGCACGTGGAGGT,-0.07 kcal/mol
3,AGTGGCACGTGCGTAG,-0.19 kcal/mol
4,TAGTGCACGTGGATTG,-0.08 kcal/mol
5,ATAGCCACGTGTGGCG,0.01 kcal/mol
6,GAGGTCACGTGAGGGC,0.24 kcal/mol
7,TGGAACACGTGGCCGG,-0.06 kcal/mol
8,AGGCTCACGTGGGATT,0.2 kcal/mol
9,CAGGTCACGTGGTGTT,-0.04 kcal/mol
10,TTTATCACGTGTTAAG,0.26 kcal/mol
11,ATGAACACGTGGGTGG,-0.08 kcal/mol
12,TATAGCACGTGATAGT,-0.04 kcal/mol
13,GACGTCACGTGGAGGG,0 kcal/mol
14,GGATACACGTGTGCTG,0.16 kcal/mol
15,ATAATCACGTGGGTGC,0.04 kcal/mol
16,TATATCACGTGACTGT,0.27 kcal/mol
17,TCATTCACGTGTGTCG,0.3 kcal/mol
18,GTCAGCACGTGGGAAA,0.07 kcal/mol
19,AAATGCACGTGGGGGC,-0.15 kcal/mol
20,AAGAACACGTGGTGAG,0.03 kcal/mol
21,AGATTCACGTGGTCTT,0.1 kcal/mol
22,TGTAACACGTGTTGTA,-0.04 kcal/mol
23,TCCGTCACGTGGGAGG,-0.04 kcal/mol
24,GGGGACACGTGTTTCG,-0.03 kcal/mol
25,TCATACACGTGTGGGA,0.26 kcal/mol

row,Sequence,relative binding free energy
1,GTGGGCACGTGTGATG,0.05 kcal/mol
2,TTTTTCACGTGAACTG,0.31 kcal/mol
3,AGACTCACGTGTGTGG,0.18 kcal/mol
4,ATGACCACGTGTTTGT,-0.06 kcal/mol
5,TTGGACACGTGGCTGA,0 kcal/mol
6,ATTGGCACGTGCGTGG,-0.26 kcal/mol
7,GTGTTCACGTGGCCGT,0.24 kcal/mol
8,GGGAACACGTGAGGAA,0.39 kcal/mol
9,TTGGTCACGTGATAGA,0.33 kcal/mol
10,TCGGTCACGTGACTGG,0.27 kcal/mol
11,ATTGGCACGTGGCCTT,-0.24 kcal/mol
12,CGTGTCACGTGGAGCT,-0.09 kcal/mol
13,TGTTGCACGTGGCGCT,-0.12 kcal/mol
14,CCGTTCACGTGTATGT,0.26 kcal/mol
15,TTTTTCACGTGCTGTA,0.36 kcal/mol
16,GGATGCACGTGGTAAG,0 kcal/mol
17,GTGAACACGTGGTTAT,0.02 kcal/mol
18,GTATACACGTGATGGG,0.15 kcal/mol
19,GGGGACACGTGATGTC,0.26 kcal/mol
20,AGGATCACGTGTGTAA,0.16 kcal/mol
21,CGAGCCACGTGTTGGG,0.05 kcal/mol
22,GTGGGCACGTGCGTTG,-0.17 kcal/mol
23,AAGAACACGTGTAAGG,0.24 kcal/mol
24,CGGTGCACGTGTTGAT,0 kcal/mol
25,TTGCGCACGTGCGGGC,-0.16 kcal/mol

row,Sequence,relative binding free energy
1,ATGGTCACGTGAGTAT,0.32 kcal/mol
2,GTTCACACGTGGCGGT,-0.01 kcal/mol
3,TTTTTCACGTGAGGTG,0.43 kcal/mol
4,TTAATCACGTGCAGTG,0.06 kcal/mol
5,TCTGGCACGTGAAGTA,0.17 kcal/mol
6,TAAATCACGTGTAAGT,0.24 kcal/mol
7,GAAGTCACGTGCATTT,0.31 kcal/mol
8,ATTGTCACGTGGGGGT,-0.08 kcal/mol
9,TTTATCACGTGCTTTC,0.09 kcal/mol
10,ATTGGCACGTGACGTT,0.02 kcal/mol
11,TAAAGCACGTGTTGGA,-0.06 kcal/mol
12,TATTTCACGTGCACTT,0.28 kcal/mol
13,TGCGACACGTGAGGAT,0.33 kcal/mol
14,GATGACACGTGATTGG,0.15 kcal/mol
15,ATAGTCACGTGGCATG,-0.14 kcal/mol
16,TGTCACACGTGATGGT,0.16 kcal/mol
17,TTGAACACGTGATAGT,0.07 kcal/mol
18,CGGAGCACGTGTGGTA,-0.05 kcal/mol
19,TTTCTCACGTGTTATT,0.16 kcal/mol
20,GGTGGCACGTGCCGTA,-0.18 kcal/mol
21,CAGAGCACGTGCTGGG,-0.04 kcal/mol
22,ATTTACACGTGGTTGT,0.08 kcal/mol
23,TAGTGCACGTGCTAAG,-0.08 kcal/mol
